The whole screen tested about 310,000 compounds, of which about 2,200 (0.71%) showed an effect of 50% or more. Effects have a minus sign here. The list shows a part of the results.

In the assay the target is human ether-à-go-go-related gene (hERG) potassium channel (human, UniProt Q12809). Put plainly: primary screen, population patch clamp on CHO cells stably expressing hERG.
Sequence of human ether-à-go-go-related gene (hERG) potassium channel (Q12809 whole entry, looked up): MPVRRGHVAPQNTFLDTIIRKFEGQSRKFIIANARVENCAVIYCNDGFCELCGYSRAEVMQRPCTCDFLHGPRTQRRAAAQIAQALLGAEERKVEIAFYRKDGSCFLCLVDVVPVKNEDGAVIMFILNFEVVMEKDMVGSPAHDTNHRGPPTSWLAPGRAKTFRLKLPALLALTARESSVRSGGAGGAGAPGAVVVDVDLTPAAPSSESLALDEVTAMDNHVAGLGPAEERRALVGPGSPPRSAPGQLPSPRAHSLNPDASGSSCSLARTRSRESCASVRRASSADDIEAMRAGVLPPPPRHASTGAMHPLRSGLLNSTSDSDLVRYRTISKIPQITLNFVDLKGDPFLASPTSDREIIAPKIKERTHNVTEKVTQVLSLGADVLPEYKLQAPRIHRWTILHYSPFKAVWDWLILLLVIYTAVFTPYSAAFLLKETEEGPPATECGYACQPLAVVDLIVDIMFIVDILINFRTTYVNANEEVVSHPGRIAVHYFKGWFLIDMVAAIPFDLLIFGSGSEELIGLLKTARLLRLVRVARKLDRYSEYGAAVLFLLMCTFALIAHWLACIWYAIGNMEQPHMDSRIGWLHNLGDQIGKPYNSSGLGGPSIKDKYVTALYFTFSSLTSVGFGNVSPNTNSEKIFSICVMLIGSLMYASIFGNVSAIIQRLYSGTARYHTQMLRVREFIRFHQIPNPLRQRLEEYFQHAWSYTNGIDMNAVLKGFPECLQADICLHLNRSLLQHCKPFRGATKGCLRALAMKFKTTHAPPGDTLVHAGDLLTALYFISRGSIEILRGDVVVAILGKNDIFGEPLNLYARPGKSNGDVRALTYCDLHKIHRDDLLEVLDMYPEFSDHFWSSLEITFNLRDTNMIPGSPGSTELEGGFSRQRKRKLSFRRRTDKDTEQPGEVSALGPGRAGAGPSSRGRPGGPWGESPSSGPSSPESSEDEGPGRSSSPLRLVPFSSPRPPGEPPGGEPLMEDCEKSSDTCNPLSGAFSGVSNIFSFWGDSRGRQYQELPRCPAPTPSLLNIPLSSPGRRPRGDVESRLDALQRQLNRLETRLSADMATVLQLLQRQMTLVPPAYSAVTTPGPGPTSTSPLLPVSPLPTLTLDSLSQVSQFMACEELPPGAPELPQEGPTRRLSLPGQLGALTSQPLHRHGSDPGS
`COc1ccccc1C(=O)Nc1nc(C)cc(C)n1`: the “hERG current change (%, negative = inhibition) at 1uM” value came to 15.9%.

In the case of `CCCCNC(=O)Nc1cc(C(=O)OC)ccc1Cl`, the “hERG current change (%, negative = inhibition) at 1uM” value is recorded as 11.7%.

Regarding `Cc1cc(C(=O)OCC(=O)N2CC(C)OC(C)C2)ccc1[N+](=O)[O-]` (centres unmarked), the “hERG current change (%, negative = inhibition) at 1uM” value is 5.59%.

Turning to `COc1cccc(NC(=O)Cc2nnc(SCC(=O)NC3CCCC3)n2C)c1`, the “hERG current change (%, negative = inhibition) at 1uM” value is 12%.

For the compound `CC(NCc1ccc(S(N)(=O)=O)cc1)C(=O)NCc1ccccc1` (centres unmarked), the “hERG current change (%, negative = inhibition) at 1uM” value stood at 10.6%.

As for `CCc1ccc(NC(=O)N2CCCCCC2)cc1`, the “hERG current change (%, negative = inhibition) at 1uM” value was found to be 3.52%.

For the compound `Cc1ccc(NC(=S)N/N=C/c2c(Cl)cccc2Cl)c(C)c1`, the “hERG current change (%, negative = inhibition) at 1uM” value is given as 9.75%.

On to `C[C@H](CCC(=O)NCCS(=O)(=O)[O-])[C@H]1CC[C@H]2[C@@H]3[C@H](O)C[C@@H]4C[C@H](O)CC[C@]4(C)[C@H]3C[C@H](O)[C@]12C.O.[Na+]`, for which the “hERG current change (%, negative = inhibition) at 1uM” value stood at 15.5%.

`COc1ccc(S(=O)(=O)NCC2CCCN(Cc3cccnc3)C2)cc1` (centres unmarked): the “hERG current change (%, negative = inhibition) at 1uM” value is recorded as -8.34%.

In the case of `O=C(CSc1ncn[nH]1)NCc1ccc2c(c1)OCO2`, the “hERG current change (%, negative = inhibition) at 1uM” value is listed as 13.1%.

Regarding `CC(C)(C)c1cc(CCC(=O)N2CCNCC2)c(C(C)(C)C)cc1O`, the “hERG current change (%, negative = inhibition) at 1uM” value is reported as 6.95%.

Consider `O=C(N/N=C/c1ccco1)c1ccccc1OCc1ccc(Br)cc1`, for which the “hERG current change (%, negative = inhibition) at 1uM” value is 8.32%.

Regarding `CCCC(=O)N1CCN(Cc2ccc3c(c2)OCO3)CC1`, the “hERG current change (%, negative = inhibition) at 1uM” value worked out at 9.39%.

Take `Cc1ccc(NC(=O)CSCC(=O)Nc2ncc3c(n2)CC(c2ccco2)CC3=O)cc1` (centres unmarked): the “hERG current change (%, negative = inhibition) at 1uM” value is 3.4%.

As for `O=S(=O)(Nc1ncccn1)c1ccc(F)cc1`, the “hERG current change (%, negative = inhibition) at 1uM” value was found to be 11.9%.

Regarding `O=C(Nc1cccnc1)c1cc(S(=O)(=O)N2CCOCC2)ccc1Br`, the “hERG current change (%, negative = inhibition) at 1uM” value is reported as -17.2%.

`C=CCNC(=O)CN(c1ccc(F)cc1)S(=O)(=O)c1ccc(OC)cc1`: the “hERG current change (%, negative = inhibition) at 1uM” value is -0.23%.

In the case of `Cc1ccc(CNC(=O)c2ccc(N3CCCC3=O)cc2)cc1`, the “hERG current change (%, negative = inhibition) at 1uM” value is 5.86%.

`CC(C)CCOP(=O)(c1ccc(N(C)C)cc1)C(O)c1ccc(C(C)C)cc1` (centres unmarked): the “hERG current change (%, negative = inhibition) at 1uM” value stood at 14.4%.

In the case of `Cc1ccccc1CN1CCN(CC(=O)NCc2ccccn2)C1=O`, the “hERG current change (%, negative = inhibition) at 1uM” value is 18.7%.

For the compound `Cc1cc(-c2nn(-c3ccccc3)cc2/C=C2\SC(N)=NC2=O)ccc1OC(C)C`, the “hERG current change (%, negative = inhibition) at 1uM” value was found to be 7.78%.

In the case of `COc1ccc(CNc2nc(C)c([N+](=O)[O-])c(C)c2C#N)cc1`, the “hERG current change (%, negative = inhibition) at 1uM” value was 5.95%.

Regarding `CC(C(=O)Nc1ccccc1Br)c1ccc([N+](=O)[O-])cc1` (centres unmarked), the “hERG current change (%, negative = inhibition) at 1uM” value was -1.59%.

With `O=C1C=C(c2ccc3c(c2)oc2ccccc23)C[C@@H](c2ccc3c(c2)OCO3)C1`, the “hERG current change (%, negative = inhibition) at 1uM” value came out at 18.3%.

On to `O=C(N/N=C/c1cc(Cl)cc([N+](=O)[O-])c1O)c1ccc2c(c1)OCO2`, for which the “hERG current change (%, negative = inhibition) at 1uM” value was 16.2%.

Take `CC(=O)C1C(=O)C=C(c2ccco2)CC1c1ccccc1` (centres unmarked): the “hERG current change (%, negative = inhibition) at 1uM” value is given as 4.32%.

Take `COc1ccc(N(C(=O)CS(=O)CC(=O)Nc2ccc(F)cc2)C(C(=O)NC2CCCCC2)c2cccs2)cc1` (centres unmarked): the “hERG current change (%, negative = inhibition) at 1uM” value turned out to be 6.31%.

With `O=C(NCCCC(NC(=O)OCc1ccccc1)C(=O)O)OCc1ccccc1` (centres unmarked), the “hERG current change (%, negative = inhibition) at 1uM” value turned out to be 17.5%.

As to `CCOC(=O)c1cc(NC(=O)Nc2ccccn2)c(C)nc1C`, the “hERG current change (%, negative = inhibition) at 1uM” value is on record as -0.343%.

As to `O=C(NCCN1C(=O)S/C(=C/c2ccccc2)C1=O)C1CCCN1C(=O)c1cccs1` (centres unmarked), the “hERG current change (%, negative = inhibition) at 1uM” value is -0.548%.

For `CC(C)CCNC(=O)c1cc(S(=O)(=O)N2CCCCC2)ccc1N1CCOCC1`, the “hERG current change (%, negative = inhibition) at 1uM” value was determined as 7.49%.

Consider `O=C(N/N=C/c1ccc(F)cc1)c1cc(-c2ccc3c(c2)OCO3)n[nH]1`, for which the “hERG current change (%, negative = inhibition) at 1uM” value was 3.43%.

On to `O=C(O)C(=O)O.O=[N+]([O-])c1ccc(N2CCN(Cc3ccc([N+](=O)[O-])o3)CC2)cc1`, for which the “hERG current change (%, negative = inhibition) at 1uM” value is -47.3%.

Take `CCN(CC)N=O`: the “hERG current change (%, negative = inhibition) at 1uM” value was determined as 11.1%.

In the case of `Cc1ccc(-c2nc(C(F)(F)F)cc(=O)[nH]2)cc1`, the “hERG current change (%, negative = inhibition) at 1uM” value is listed as 14.1%.

As for `Cc1ccc(C(=O)Nc2nnc(SCC(=O)N3CCCc4ccccc43)s2)cc1`, the “hERG current change (%, negative = inhibition) at 1uM” value is 10%.

For `O=C(C[n+]1ccc(-c2nnc3n2CCCCC3)cc1)c1ccc(Cl)cc1.[Br-]`, the “hERG current change (%, negative = inhibition) at 1uM” value was determined as 10.5%.

As to `CCOC(=O)c1ccc(N2CCN(C(=O)c3ccccc3)CC2)c(NC(=O)c2ccco2)c1`, the “hERG current change (%, negative = inhibition) at 1uM” value is -9.66%.

For `COC(=O)NCc1ccc2c(c1)OCO2`, the “hERG current change (%, negative = inhibition) at 1uM” value stood at 7.79%.

Regarding `O=C(NCc1ccccc1)[C@]1(C(F)(F)F)C[C@H](CCc2ccccc2)CCCO1`, the “hERG current change (%, negative = inhibition) at 1uM” value is given as 9.86%.

`CCOC(=O)c1c(C(F)(F)F)cc(-c2ccc(F)cc2)nc1C`: the “hERG current change (%, negative = inhibition) at 1uM” value came out at 14.9%.

As for `Cc1ccc(S(=O)(=O)N2CCN(C3CC(=O)N(CCc4ccccc4)C3=O)CC2)cc1C` (centres unmarked), the “hERG current change (%, negative = inhibition) at 1uM” value stood at 8.31%.

Turning to `Cc1cc(C)c2cc(C(=O)Nc3ccccc3)[nH]c2c1`, the “hERG current change (%, negative = inhibition) at 1uM” value is on record as 15.3%.

For `CCCCOc1ccc(/C=N/Nc2cc(N3CCOCC3)nc(C)n2)cc1`, the “hERG current change (%, negative = inhibition) at 1uM” value is -1.03%.

The record behind these values is publication PMC4336329 (PLoS ONE, 2015).
